In the supplement of paper PMC3334620:
Over roughly 33,000 sequences, “E-score (-0.5 to 0.5)” has its median near -0.012; the highest 2% begin near 0.27. Some of the results follow.

target: T1, Vhr1 (UniProt P40522); experiment: PBM E-score (8-mer binding enrichment) (E-score (-0.5 to 0.5)); higher = stronger / more preferred TF binding; most listed sequences are background and not binding sites; conditions: protein concentration: 200 nM; construct: GST-full length
T1 sequence: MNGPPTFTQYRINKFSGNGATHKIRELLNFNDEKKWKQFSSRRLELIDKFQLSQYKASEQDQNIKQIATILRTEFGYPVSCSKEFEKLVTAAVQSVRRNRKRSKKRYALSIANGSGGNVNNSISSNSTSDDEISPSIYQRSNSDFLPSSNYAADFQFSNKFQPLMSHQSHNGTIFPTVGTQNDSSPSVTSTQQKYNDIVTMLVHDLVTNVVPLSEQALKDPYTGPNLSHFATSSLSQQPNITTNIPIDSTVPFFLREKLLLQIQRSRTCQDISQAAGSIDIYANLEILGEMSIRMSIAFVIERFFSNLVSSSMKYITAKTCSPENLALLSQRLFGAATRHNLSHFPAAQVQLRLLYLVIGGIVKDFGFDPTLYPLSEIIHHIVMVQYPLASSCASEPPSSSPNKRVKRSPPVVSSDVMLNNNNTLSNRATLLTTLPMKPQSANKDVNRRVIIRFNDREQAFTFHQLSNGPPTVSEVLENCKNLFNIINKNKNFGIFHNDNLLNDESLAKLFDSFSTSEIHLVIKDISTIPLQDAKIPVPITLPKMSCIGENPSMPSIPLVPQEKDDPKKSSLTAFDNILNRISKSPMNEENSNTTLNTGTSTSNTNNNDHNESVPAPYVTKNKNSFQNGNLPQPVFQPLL
Method in brief: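 Full-length yeast transcription factors or their DNA-binding domains, GST-tagged and expressed with PURExpress, were applied at about 100-200 nM to universal all-10-mer Agilent arrays. These arrays had been made double-stranded by primer extension on fresh or once-stripped slides. Detection used fluorescent anti-GST, normalisation used masliner, and E-scores for ungapped eight-base words pooled with reverse complements came from the Universal PBM Analysis Suite.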

Sequence	PBM E-score
AGGGCCGA	0.134
CGGTAGCA	0.113
ACGCGGCA	-0.115
CAACGCGA	-0.0146
ACGGACGC	-0.142
ACCGCGCA	0.135
GTTGGCCA	-0.026
GAACGAGA	0.00657
CCACTACG	-0.0403
GGTGGGCA	-0.0273
AAACGTCA	-0.1
ATTCGGTC	-0.0276
GAGACAGA	0.109
ATTGCAGG	0.0245
TTTACAAA	-0.0509
ATTGAAAT	-0.0246
AGATGGTG	0.0635
CCGGCGCG	0.0587
TATGTAAA	0.0903
ATCATCAG	0.0874
AGTATCAA	0.184
CCGCTTCG	-0.142
CGGTTGGA	-0.184
AACAAGCA	0.0363
CAGAAGCG	0.028

Sequence	PBM E-score
CGTGCGGC	0.0491
GTTTTAAA	-0.136
GCGGGTGA	0.293
GTGTCCAA	0.0322
GTAATTAC	0.119
ACCGTAGC	-0.0527
ACCTCATG	-0.0837
GCCGCAGC	0.0307
GGAGAATA	0.0931
CAGGGAGG	-0.00313
CCACGACA	0.0244
ACGCTGGA	0.106
CTGTTATC	-0.071
GATATTTA	-0.0727
CGTCAACC	-0.12
TAGTTGCA	0.0409
CTGCAGTA	-0.0493
TCTAAAAA	-0.234
ACCTTTTC	-0.166
GTTTGACA	-0.168
CCCGCCGC	0.36
TGAAAGAA	-0.248
ATTTGCGA	-0.0446
CCTCCACG	-0.149
AAGGGGAG	-0.0987

Sequence	PBM E-score
CGGGTAGA	-0.0495
CATCACCA	0.167
TACGACAA	0.17
CGCGTACC	-0.00725
ACCACTCC	0.152
AGAAGATG	-0.183
ACAGGTAT	0.137
AGCCTTTA	-0.169
GTGCGAAC	-0.037
ATCGCGGA	0.00117
CTACAGTC	-0.0114
ACATAACG	-0.0442
CCCCGTGC	-0.00049
CCTTTATA	-0.307
ACGCACGT	-0.13
ACGATAGA	-0.136
AGATCCGG	-0.166
CCATGTTC	0.0255
AAAAGAAT	-0.113
GACGCGAA	0.0106
AACTCCTC	-0.268
GCGGCATA	-0.0994
GTTCAAGA	-0.143
GCCTACCC	-0.1
ATCGGAAA	-0.12

Sequence	PBM E-score
GCCCTACC	0.0565
CCGCCGTC	0.132
ATGGAGCA	0.0442
ATGGTGGG	0.0211
CGCGCAGA	0.205
TACTTACA	0.0616
TAATGAAA	-0.276
CAGGCGAG	-0.119
AGGACATC	-0.108
ACCAGTGA	0.197
GAATTGAA	-0.123
CTAGCCTC	-0.0849
AATCGGAC	-0.152
CCACTGTA	0.0971
ACTGAGCG	-0.127
GGCGTGAA	-0.169
CAGCGGCA	-0.021
GCGTATCA	0.175
AAGTCCAC	-0.224
TGACAGCA	0.127
ACGACGTG	0.114
CACACTAG	-0.0647
GGCTACAA	0.0795
ACGAATGA	0.153
CGACTTGA	-0.0845

Sequence	PBM E-score
GAACTCAA	0.0249
CTGTGCTC	0.15
AATTTTGT	-0.11
AGCACGAC	0.0474
AATTCAGC	-0.0451
ATCCTGGC	-0.11
CACAGTCC	0.0437
GCACTAAC	0.0497
GAAAGGGA	-0.147
AGCGGCTG	-0.111
AACTCTCG	-0.0555
TGTGCTAA	0.167
GGACTTTA	-0.174
AACCTTAG	-0.0607
GGACCCGA	-0.0237
GTGACAAA	-0.0829
TAAATACA	-0.0291
TCGTGAAA	-0.266
ACCAACGG	0.023
AGCGGTTG	0.111
CGGCAGAC	-0.0221
AGCAGGGG	-0.222
ATGGTGCC	-0.261
CCCCGCCA	0.398
AGTATGCG	-0.0241

Sequence	PBM E-score
CAGTTATG	0.16
AGGCGTCG	0.0371
AACGTGCT	-0.0508
AAATAATA	0.2
GCACCCGA	0.116
AGACTTAT	-0.0344
ACATGTAT	0.246
CGCCCTCA	-0.16
CGCAAGCA	0.121
AGATGACC	-0.0573
ATGAAGGC	-0.0695
CTTAACCA	0.0943
TAAACGAA	-0.204
ACGCGAAT	0.077
GGACTAGA	-0.138
AACTTCTT	-0.182
CATGTGAC	0.198
AACATAGA	0.0485
ACCGCAGG	0.0293
AACAATCT	-0.00162
AAGGTAAA	-0.196
CGCGTCGC	-0.0637
ACCATTAT	0.169
TGACATAA	0.0509
CACGATGG	-0.0474

Sequence	PBM E-score
AATGCGAG	-0.0244
GCACCTAA	0.0537
AGTCGGTG	0.246
TATTAACA	0.105
AGAAGTGG	-0.0889
ATAGGTCA	0.096
AGGGGGTG	-0.11
CGCCTGAA	0.0964
GAATTTAC	-0.127
ACAATGAC	0.209
CTATTTCC	-0.081
CAGACTGA	0.126
CACACCCC	0.0769
ACATACGT	-0.0684
AATAACTG	0.0575
GCTCGAGC	0.0705
ACAGGCTG	0.0289
ACGGGAAA	-0.174
GACAAGGC	-0.128
GCCTTCGC	0.096
CGTGCGAA	0.0076
CCATATCC	0.0679
